Measurements as given in a collection of fitness landscapes (doi:10.1038/s41467-024-54723-y).
Whole data set: some 18,000 sequences, median “TetR repression strength (sort-seq, GFP reporter)” near 0.23, cut for the highest 2% near 0.68. Some of the results follow.

Target: TetR (class B, Tn10) (UniProt P04483)
Assay: TetR repression strength (sort-seq, GFP reporter) (relative to tetO2 = 1); higher = stronger repression
Settings: E. coli
How it was run: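 Three independent transformations of E. coli SIG10-MAX were made with a low-copy plasmid library randomizing eight operator positions between a constitutive promoter and sfGFP, with constitutive TetR. Following 5 h at 37 °C in LB plus 50 µg/mL chloramphenicol, 10^6 cells went through FACS into 13 fluorescence bins, and each bin was sequenced by Illumina. Repression strength was defined as the top bin index plus one minus the read-weighted mean bin, divided by the unaltered operator's value. Averages included only members reaching ≥30 reads in all replicates with a CV ≤0.5.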

UniProt P04483, sequence (P04483 whole entry): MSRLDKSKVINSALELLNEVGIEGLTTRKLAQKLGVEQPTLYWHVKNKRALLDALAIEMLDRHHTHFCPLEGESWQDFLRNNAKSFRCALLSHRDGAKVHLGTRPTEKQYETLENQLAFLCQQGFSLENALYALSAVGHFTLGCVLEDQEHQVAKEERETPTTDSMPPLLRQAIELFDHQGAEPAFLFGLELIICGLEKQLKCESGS

Sequence	TetR repression strength
TCCCTCGAAGTGCTCGAGA	0.0305
TCCCTCGAAGTCGACGAGA	0.0272
TCCCGTTTAGTACTTGAGA	0.00451
TCCCTGGGAGTATTTGAGA	0.155
TCCCCGGCAGTGTTTGAGA	0.09
TCCCAGCGAGTATTCGAGA	0.286
TCCCGCTAAGTCGCGGAGA	0.184
TCCCGTACAGTATAGGAGA	0.0753
TCCCAGTGAGTGAAGGAGA	0.0721
TCCCATTAAGTGAAGGAGA	0.258
TCCCCGGGAGTACGTGAGA	0.17
TCCCGCGGAGTTGTTGAGA	0.197
TCCCGTCCAGTCACCGAGA	0.286
TCCCTACGAGTTAAGGAGA	0.187
TCCCGTGGAGTACGCGAGA	0.245
TCCCAGGAAGTCTGGGAGA	0.294
TCCCTTCCAGTTTCAGAGA	0.819
TCCCGCGAAGTACGCGAGA	0.434
TCCCCGGGAGTCCACGAGA	0.252
TCCCAAGGAGTGTGAGAGA	0.333
TCCCTTGTAGTGGTAGAGA	0.35
TCCCTTGAAGTTGCAGAGA	0.117
TCCCCTATAGTGGTGGAGA	0.201
TCCCTCCCAGTCTAAGAGA	0.402
TCCCCGACAGTGTGAGAGA	0.325
TCCCGGACAGTGCAGGAGA	0.266

Sequence	TetR repression strength
TCCCGGAAAGTGGTGGAGA	0.128
TCCCGGGAAGTATGCGAGA	0.0806
TCCCTGTGAGTAGGAGAGA	0.318
TCCCGCCAAGTGCGCGAGA	0.258
TCCCTAGCAGTTTTTGAGA	0.19
TCCCGGTCAGTCAACGAGA	0
TCCCACCCAGTGGCAGAGA	0.508
TCCCAGTAAGTAACCGAGA	0.0571
TCCCGCTAAGTATGGGAGA	0.0148
TCCCTCGGAGTTGCGGAGA	0.108
TCCCGTCTAGTTGGGGAGA	0.328
TCCCGTTCAGTACTTGAGA	0.239
TCCCGATGAGTATGTGAGA	0.366
TCCCGCTGAGTCGGTGAGA	0.115
TCCCACTGAGTTTGAGAGA	0.365
TCCCGTCGAGTCGGTGAGA	0.356
TCCCGGTGAGTTTGAGAGA	0.428
TCCCCAGGAGTCCGAGAGA	0.114
TCCCTGCTAGTGGGAGAGA	0.261
TCCCTTTGAGTAGGTGAGA	0.168
TCCCCTGTAGTGTTCGAGA	0.11
TCCCAGTAAGTCTGCGAGA	0.0074
TCCCTTTAAGTGTAGGAGA	0.359
TCCCGATTAGTTTTGGAGA	0.29
TCCCGGTCAGTGGAGGAGA	0.0362
TCCCAGTGAGTCAAGGAGA	0.204

Sequence	TetR repression strength
TCCCGCGCAGTTATGGAGA	0.236
TCCCAGGTAGTCCTGGAGA	0.117
TCCCCGTAAGTAGAAGAGA	0.181
TCCCATCCAGTGTCCGAGA	0.483
TCCCTGGCAGTGGCGGAGA	0.246
TCCCCCTAAGTTTATGAGA	0.326
TCCCCGTAAGTCGTAGAGA	0.245
TCCCATGAAGTTTGGGAGA	0.622
TCCCGGTAAGTTAACGAGA	0.0246
TCCCGGTTAGTAAGTGAGA	0.388
TCCCGGCCAGTAGGGGAGA	0.275
TCCCATTTAGTTTCTGAGA	0.0306
TCCCGCTGAGTAGTTGAGA	0.207
TCCCAACCAGTGAGTGAGA	0.415
TCCCCCCGAGTGTCCGAGA	0.415
TCCCTTACAGTTCCTGAGA	0.494
TCCCTCAGAGTACTAGAGA	0.17
TCCCCGCGAGTTTTGGAGA	0.21
TCCCCGAGAGTGCTGGAGA	0.252
TCCCCGCGAGTGACGGAGA	0.181
TCCCAGCGAGTGGCTGAGA	0.0853
TCCCTTTCAGTAGGGGAGA	0.194
TCCCGGCTAGTCCCCGAGA	0.325
TCCCAGGGAGTCGGGGAGA	0.454
TCCCGTGGAGTTTCTGAGA	0.0476
TCCCAGCAAGTTGGCGAGA	0.0163

Sequence	TetR repression strength
TCCCCGGGAGTCAGTGAGA	0.182
TCCCATAGAGTAGACGAGA	0.309
TCCCCGGGAGTCCGCGAGA	0.288
TCCCTACGAGTGTGAGAGA	0.147
TCCCCATCAGTTACAGAGA	0.281
TCCCGCATAGTGCCTGAGA	0.0957
TCCCATCTAGTAAGCGAGA	0.394
TCCCCCATAGTTATTGAGA	0.415
TCCCTGCAAGTGAGTGAGA	0.189
TCCCTATTAGTCGCTGAGA	0.304
TCCCCCAGAGTGAGTGAGA	0.152
TCCCTCGAAGTGAAGGAGA	0.146
TCCCAGTAAGTTGCTGAGA	0.0906
TCCCTTGGAGTCATTGAGA	0.207
TCCCGCACAGTCGCGGAGA	0.193
TCCCCCTAAGTAGTTGAGA	0.299
TCCCCGTCAGTTGTGGAGA	0.023
TCCCATCGAGTTTCCGAGA	0.273
TCCCTGTCAGTGGCAGAGA	0.545
TCCCGGGTAGTTTATGAGA	0.262
TCCCCGGGAGTGTTGGAGA	0.193
TCCCTTATAGTGGAGGAGA	0.0898
TCCCTCTCAGTGCCAGAGA	0.585
TCCCCGGGAGTCTGCGAGA	0.385
